Values joined by “and” are separate entries in the source; they are usually repeats but may differ in a detail not shown here. Identical values can stand only once. Over roughly 13,000 compounds, “IFI” has its median near 4; the highest 2% begin near 17. The list shows a part of the results.

The nature of the experiment: GSK_TCMDC: Inhibition Frequency Index (IFI). The number of non-kinase HTS assays where a compound showed > 50 % inhibition, expressed as a percentage of the number of such assays in which the compound was tested (-0 is zero). It is filed as functional.
In turn, `CC1(C)CCCN(C(=O)Cc2ccc3c(c2)CCCC3)C1CN1CC=CC1` (stereo not drawn) gave an IFI of 1.41%. Compound `CC(C)CNCc1cccc(-c2ccc(CN(C(=O)Nc3ccccc3)C3CCN(Cc4ccccc4)CC3)cc2)c1` displayed an IFI of 5.71%. As for `O=C(Nc1cc(C(F)(F)F)cc(C(F)(F)F)c1)N1CCC(CN2CCC(c3c[nH]c4ccccc34)CC2)CC1`, the IFI was found to be 4.29%.

Compound `Cc1[nH]c2ccccc2c1C1=CCN(CCCCCC23CCCc4cccc(c42)NC3=O)CC1` (stereo not drawn) gave an IFI of 2.84%. For the compound `S=C(NCCc1ccc(Cl)cc1)NC1CCC(CN2CCC(c3c[nH]c4ccccc34)CC2)CC1` (stereo not drawn), the IFI was 6.52% and 5%. The result for `CN(c1cc(NC(=O)c2ccc(F)cc2)ccn1)C1CCN(Cc2ccc(C#N)cc2)CC1` reads 2.5%. `O=C(c1cccs1)N(Cc1cccc(-c2ccc(CNC3CCCC3)cc2)c1)C1CCN(Cc2ccccc2)CC1` showed an IFI of 9.79%.

`NCc1ccc(-c2ccccc2CN(C(=O)Nc2ccccc2)C2CCN(Cc3ccccc3)CC2)cc1` gave an IFI of 7.91%.

In turn, `CCCCCc1cc(O)c2c(c1)OC(C)(C)CC2C1=CCN(Cc2cnc3ccccc3c2)CC1` (stereo not drawn) had an IFI of 3.68%. The result for `Cc1cccc(N2CCN(Cc3cc(Cl)ccc3O)CC2)c1C` reads 2.08%; that for `CCc1ccc(CC(C)NCC(O)c2ccccc2)cc1` (stereo not drawn), 4.55%; that for `CC(Cc1ccc(CSC(C)C)cc1)NCC(O)c1cccc(Cl)c1` (stereo not drawn), 7.04%.

The compound `COc1ccc(CC(C)NCC(O)c2cccc(Cl)c2)cc1C` (stereo not drawn) had an IFI of 2.9%. Consider `CN1CCN(c2ccc3[nH]c(-c4ccc5[nH]c(-c6ccc(O)cc6)nc5c4)nc3c2)CC1`, for which the IFI stood at 5.26%. As for `CC[C@H]1CN2CC[C@H]1C[C@H]2[C@H](O)c1cc(-c2ccc(F)cc2)nc2ccc(OC)cc12`, the figure is 9.46%; as for `O=C(/C=C/c1ccc(Cl)c(Cl)c1)N1CCC(CN2CCC(c3c(-c4ccc(F)cc4)[nH]c4ccccc34)CC2)CC1`, 0.73%; as for `O=C(C=Cc1ccc(F)c(Br)c1)NC1CCC(CN2CCC(c3c[nH]c4ccccc34)CC2)CC1` (stereo not drawn), 3.76% and 4.48%. `COc1ccc(CCNCc2ccc3c(C)cc(N)nc3c2)cc1`: the IFI stood at 2.63%.

With `O=C(/C=C/c1ccc(Cl)c(Cl)c1)Nc1cccc(CN2CCC(c3c[nH]c4ccccc34)CC2)c1`, the IFI came out at 7.19%. As for `CCC1(C)CC(CCNCc2ccccc2O)(c2ccc(F)cc2)CCO1` (stereo not drawn), the figure is 2.26%; as for `C=C[C@H]1CN2CC[C@@H]1C[C@H]2[C@H](O)c1cc(-c2ccc(F)cc2)nc2ccc(OC)cc12`, 5.88%.

`O=C(/C=C/c1ccc(Cl)c(Cl)c1)N1CCC(CN2CCC(c3c[nH]c4ccccc34)C(O)C2)CC1` (stereo not drawn) displayed an IFI of 4.44%.

Regarding `C1=C(c2c[nH]c3ccccc23)CCN(Cc2ccccc2)C1`, the IFI turned out to be 4.62%.

With `O=C(/C=C/c1c(Cl)cccc1Cl)NC1CCC(CN2C3CCC2CC(c2c[nH]c4ccccc24)C3)CC1` (stereo not drawn), the IFI was 4.44%.

Turning to `Cc1[nH]c2ccc(O)cc2c1C1CCN(CC2CCN(C(=O)/C=C/c3ccc(Cl)c(Cl)c3)CC2)CC1`, the IFI turned out to be 6.9%.

Consider `CC[C@H]1CN2CCc3cc(OC)c(OC)cc3[C@@H]2C[C@@H]1C[C@H]1NCCc2c1cc(OC)c(OC)c2Br`, for which the IFI was found to be 9.35%. In turn, `CC(C)CN1CCC(N(C)c2cc(NC(=O)c3cccc(F)c3)ccn2)CC1` yielded an IFI of 2.78%.

Turning to `N#Cc1c(Cl)cccc1Oc1ccc(S(=O)(=O)NC2CCC(CN3CCC(c4c[nH]c5ccccc45)CC3)CC2)cc1` (stereo not drawn), the IFI is 10.1% and 7.8%. As for `O=C(c1cc(C(=O)NCc2ccc(Cl)cc2)c(=O)n(Cc2ccc(Cl)cc2)c1)c1cc(Cl)ccc1O`, the figure is -0%; as for `COC(=O)c1ccc(CC(C)NCC(O)c2cccc(C(F)(F)F)c2)c(Cl)c1` (stereo not drawn), 4.55%. The compound `COC(=O)/C=C/c1ccc(CC(C)NCC(O)c2cccc(Cl)c2)cc1` (stereo not drawn) displayed an IFI of 4.38%.

With `CNCCN(C)C(=O)Oc1c(Br)c(C)nc(C)c1-c1ccc(Oc2ccc(OC(F)(F)F)cc2)cc1`, the IFI amounted to 12.4%.

Consider `Cc1[nH]c2ccccc2c1C1=CCN(CCN2CCOc3c(Br)cccc3C2=O)CC1`, for which the IFI came to 2.14%. Compound `COc1ccc(CC(C)NCC(O)c2cccc(Cl)c2F)cc1` (stereo not drawn) yielded an IFI of 3.57%.

`COc1ccc(CN2CCN(CCOC(c3ccc(F)cc3)c3ccc(F)cc3)CC2)c(O)c1` yielded an IFI of 4.11%. As for `COc1cc(C=CC(=O)N2CCC(CN3CCC(c4c[nH]c5ccccc45)CC3)CC2)ccc1O`, the figure is 2.24%. Regarding `CC[C@H]1CN2CC[C@H]1C[C@H]2[C@H](O)c1cc(-c2ccc(F)cc2C)nc2ccc(OC)cc12`, the IFI amounted to 2.84%. The result for `Cc1cc(N)nc2cc(CNCCc3ccccc3Br)ccc12` reads 7.25%; that for `CO[C@@H]1C[C@@H](C(=O)Nc2ccccc2)N(c2ccc(C#N)c3ccccc23)C1`, 0.72%; that for `CCCN(CCC)CCOC(=O)C(OCC)(c1ccccc1)c1ccccc1`, -0%. The result for `Cc1[nH]c2cc(Cl)ccc2c1C1=CCN(CCCCC2(C)C(=O)Nc3c(F)cccc32)CC1` (stereo not drawn) reads 2.21%; that for `O=C(NC1CCC(N2CCC3(CC2)C(=O)NCN3c2ccccc2)CC1)c1cc2ccccc2[nH]1` (stereo not drawn), 7.58%; that for `CC[C@H]1CN2CC[C@@H]1C[C@H]2[C@H](O)c1cc(N2CCCC(C)(C)C2)nc2ccc(OC)cc12`, 7.55%. In the case of `Cc1ccc2[nH]cc(C3CCN(CC4CCC(NC(=O)/C=C/c5ccc(Cl)c(Cl)c5)CC4)CC3)c2c1` (stereo not drawn), the IFI is 5.97% and 6.47%. As for `O=C(/C=C/c1ccsc1)NC1CCC(CN2CCC(c3c[nH]c4ccccc34)CC2)CC1` (stereo not drawn), the figure is 3.76%. In turn, `CC(C)CNCc1cccc(-c2ccc(CN(C(=O)c3cccs3)C3CCN(Cc4ccccc4)CC3)cc2)c1` registered an IFI of 7.97%.

With `O=C(C=Cc1ccccc1O)N1CCC(CN2CCC(c3c[nH]c4ccccc34)CC2)CC1`, the IFI stood at 2.21%.

In the case of `Oc1ccc2[nH]cc(C3=CCN(Cc4ccccc4)CC3)c2c1`, the IFI was found to be 3.7%.

With `Cc1cc2ccc(CNCCc3ccccc3Br)cc2nc1N`, the IFI stood at 2.22%.

`CC(=O)Nc1ccc(OCCN(CC(C)(C)C)c2ccc(C#N)c(C(F)(F)F)c2)c(Cl)c1` had an IFI of -0%.

In the case of `CNC(=O)c1ccc2[nH]cc(C3CCN(CC4CCN(C(=O)/C=C/c5ccc(Cl)c(Cl)c5)CC4)CC3)c2c1`, the IFI is 0.74%. As for `O=C(/C=C/c1ccc(Cl)c(Cl)c1)NC1CCC(N2CCC(c3c[nH]c4ccccc34)CC2)CC1` (stereo not drawn), the figure is 6.94%. As for `CCCCCCCn1c(=O)c(C(=O)Nc2c(C)cccc2C)c(O)c2ccccc21`, the IFI was -0%. The result for `CC(Cc1ccc(C2=CCNCC2)cc1)NCC(O)c1cccc(C(F)(F)F)c1` (stereo not drawn) reads 2.86%; that for `CC(Cc1ccc(Sc2ccccc2)cc1)NCC(O)c1cccc(C(F)(F)F)c1` (stereo not drawn), 5.56%. The result for `C#CCN1CCC2=C(C1)c1c(O)cc(C(C)C(C)CCc3ccc(F)cc3)cc1OC2(C)C` (stereo not drawn) reads 2.29%. Turning to `COC(=O)c1ccc(CC(C)NCC(O)c2cccc(OCc3ccccc3)c2)cc1` (stereo not drawn), the IFI was found to be 5.76%.

Take `O=C(/C=C/c1ccccc1Cl)NC1CCC(CN2CCC(c3c[nH]c4ccccc34)CC2)CC1` (stereo not drawn): the IFI is 5.04% and 6.94%. The result for `COc1cccc(O)c1CNCC(O)c1cccc(C(F)(F)F)c1` (stereo not drawn) reads 0.78%; that for `Cc1ccc(/C=C/C(=O)NC2CCC(CN3CCC(c4c[nH]c5ccccc45)CC3)CC2)cc1C` (stereo not drawn), 5.67% and 7.8%; that for `CCCCCSc1cc(O)c(C(CNC)C(C)C)cc1OC` (stereo not drawn), 2.17%. The result for `O=C(/C=C/c1ccc(Cl)c(Cl)c1)NCCC1CCC(N2CCC(c3c[nH]c4ccccc34)CC2)CC1` (stereo not drawn) reads 6.15%; that for `CC[C@H]1CN2CC[C@H]1C[C@H]2[C@H](O)c1cc(-c2ccc(Cl)c(Cl)c2)nc2ccc(OC)cc12`, 13.8%. As for `O=C(/C=C/c1ccc(Cl)c(Cl)c1)NCCC1CCC(N2CCC(c3c[nH]c4ccc(O)cc34)CC2)CC1` (stereo not drawn), the figure is 5.59%; as for `Cc1ccc(C(=O)Nc2ccnc(N(C)C3CCN(Cc4cccc(O)c4)CC3)c2)cn1`, 2.56%. In turn, `Cc1ccc2c(C3=CCN(CCCCC4(C)C(=O)Nc5c(F)cccc54)CC3)c(C)[nH]c2c1` (stereo not drawn) came in with an IFI of 2.9%. The result for `O=C(C=Cc1ccc(-c2ccccc2)cc1)NC1CCC(CN2CCC(c3c[nH]c4ccccc34)CC2)CC1` (stereo not drawn) reads 8.09% and 7.41%; that for `CC[C@H]1CN2CC[C@H]1C[C@H]2[C@H](O)c1cc(/C=C/c2ccccc2)nc2ccc(OC)cc12`, 6.99%. `C=CC12CCN(CC1)C(C(O)c1ccnc3ccc(OC)cc13)C2` (stereo not drawn) yielded an IFI of 0%. The compound `N#Cc1ccc(N(CC(=O)NCCc2ccccc2)CC2CC2)c2ccccc12` gave an IFI of 9.09%. The result for `CC[C@H]1CN2CC[C@@H]1C[C@H]2[C@H](O)c1ccnc2ccc(OC)cc12` reads -0%. As for `Cc1ccccc1CNCC(O)c1cccc(C(F)(F)F)c1` (stereo not drawn), the figure is 1.55%; as for `O=C1c2ccccc2CCC1CCN1CC=C(c2c[nH]c3ccccc23)CC1` (stereo not drawn), 2.92%; as for `Cc1[nH]c2cc(F)ccc2c1C1=CCN(CCCCC2(C)C(=O)Nc3c(F)cccc32)CC1` (stereo not drawn), 1.45%. Compound `COc1cccc(CC(C)NCC(O)c2cccc(Cl)c2)c1` (stereo not drawn) showed an IFI of 1.44%. The result for `CC[C@H]1CN2CC[C@@H]1C[C@H]2[C@H](O)c1cc(-c2ccccc2)nc2ccc(O)cc12` reads 4.44%; that for `O=C1COc2ccccc2N1CCN1CCC(NCc2ccc(-c3cccs3)cc2)CC1`, 10%.

Compound `COc1cccc(CN2CCC(CCOC(c3ccccc3)c3ccc(Cl)cc3)CC2)c1O` (stereo not drawn) showed an IFI of 5.47%. The result for `COC(=O)/C=C/c1ccc(CC(C)NCC(O)c2cccc(Br)c2)cc1` (stereo not drawn) reads 7.19%; that for `O=C(Cc1cc(=O)oc2cc(O)ccc12)NC1CCC(CN2CCC(c3c[nH]c4ccccc34)CC2)CC1` (stereo not drawn), 2.99%. With `CN(c1cc(NC(=O)c2ccc(F)cc2)ccn1)C1CCN(Cc2cccc(C#N)c2)CC1`, the IFI came to 4.88%. Regarding `N=C(N)NC(=O)Nc1ccc([N+](=O)[O-])c(Cl)c1`, the IFI is -0%. The compound `CN1CC=C(C=Cc2c[nH]c3ccccc23)CC1` displayed an IFI of 2.04%. The result for `COC(=O)CN(C(=O)/C=C/c1ccc(Cl)c(Cl)c1)C1CCC(CN2CCC(c3c[nH]c4ccccc34)CC2)CC1` (stereo not drawn) reads 4.51%; that for `CCCc1c(C(=O)NC2CCC(CN3CCC(c4c[nH]c5ccccc45)CC3)CC2)cnn1-c1ccc(Cl)cc1` (stereo not drawn), 7.41%; that for `CCCCCc1cc(O)c2c(c1)OC(C)(C)CC2C1=CCN(Cc2ccccc2)CC1` (stereo not drawn), 2.86%. As for `CC[C@H]1CN2CC[C@@H]1C[C@@H]2[C@@H](O)c1cc(-c2ccc(F)cc2)nc2ccc(OC)cc12`, the figure is 4.48%; as for `CC[C@H]1C[N+]2([O-])CC[C@@H]1C[C@H]2[C@H](O)c1cc(-c2ccccc2)nc2ccc(OC)cc12`, 2.21%.

The record behind these values is ChEMBL document CHEMBL1157539, “Thousands of chemical starting points for antimalarial lead identification” (Nature, 2010).
